Experimental data: PubChem BioAssay (NCI)
Where “and” joins values, the source holds several entries; their conditions need not be identical. Equal entries are not always repeated.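 Values below derive from 48-hour exposures of cells grown in 96-well plates, with endpoints linearly interpolated between the two concentrations bracketing the appropriate inhibition level. GI50 = concentration required for 50% inhibition of growth. At the TGI there is no net growth.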

system: NCI-H322M lung; assay: NCI tumour cell line growth inhibition, 48 h

Structure (SMILES) | TGI | GI50
C/C(=N\NC(=O)/C(C#N)=C\c1ccc(N(CCC#N)CCC#N)cc1)c1ccccc1 | > 10 µM | 
C[C@@H]1C[C@@H](O)[C@@]2(O)C13CC(=O)OC(C3)[C@@H](C)[C@@]2(C)CO (stereo partly drawn) | > 100 µM | 
CC(=O)c1c(O)ccc2c1CC(CC=O)O2 (stereo not drawn) | > 100 µM | 
O=C(O)c1ccc(-c2ccc(C(=O)O)cc2I)c(I)c1 | > 100 µM | > 100 µM
CC(F)(F)c1cc(F)ccc1-c1sc2cc(O)ccc2c1Oc1ccc(/C=C/C(=O)O)cc1 | 26.3 µM | 13.1 µM
C=C1C(=O)O[C@H]2[C@H]1[C@H](OC(=O)/C(C)=C\C)C[C@]1(CO1)[C@@H]1[C@H](OC(C)=O)C=C(C)[C@]21O | > 100 µM | 
CN1CC2=C(NC(=S)NC2c2ccc(Cl)cc2)/C(=C/c2ccc(Cl)cc2)C1 (stereo not drawn) | 35.9 µM | 
COC1(OC)CC2C(=O)N(Cc3ccccc3)C1CC2S(=O)(=O)c1ccccc1 (stereo not drawn) | > 100 µM | 
Cc1[nH]nc2c1N=C(c1ccccc1F)c1cc(C#N)ccc1N2 | 16.3 µM | 5.64 µM
CCCCCCCCCCCCOC1C(C(COC2OC(C(O)CN3CCCCC3)C3OC(C)(C)OC23)NC(=O)Nc2ccccc2)OC2OC(C)(C)OC21 (stereo not drawn) | 32.4 µM | 13.4 µM
C#CCOc1ccc2ncnc(Nc3ccc(NC(=O)CCl)cc3)c2c1 | 27.4 µM | 14.1 µM
COc1ccc(CCNCc2cccc(OC)c2OC)cc1OC | > 100 µM | 
c1ccc2c[n+](CCCCCCCCCC[n+]3ccc4ccccc4c3)ccc2c1 | > 10 µM | 
C[C@H]1COC2(c3ccccc3)CCC(=O)N12 (stereo partly drawn) | > 100 µM | 
N=C(N)c1ccc(-c2ccc(-c3ccc(Cl)cn3)s2)cc1 | 3.07 µM | 1.66 µM
CC(=O)OC1OC2C(NC(=O)OC(C)(C)C)C1CC2(OCc1ccccc1)OCc1ccccc1 (stereo not drawn) | > 100 µM | 
NS(=O)(=O)c1ccc(NC(=O)CC(=O)Nc2ccc(S(N)(=O)=O)cc2)cc1 | > 100 µM | 
Nc1nc(N)nc(-c2cnccn2)n1 | > 100 µM | 
CCOC(=O)C1=C(O)c2ccccc2C(=O)C1=O | > 100 µM | 
CC(=N/NC(=S)Nc1c(C)n(C)n(-c2ccccc2)c1=O)/C(C)=N\NC(=S)Nc1c(C)n(C)n(-c2ccccc2)c1=O | > 100 µM | 
CC(=O)OCC(OC(C)=O)C(OC(C)=O)C(OC(C)=O)C(=O)CNn1c(-c2ccccc2)nc2ccc(Br)cc2c1=O (stereo not drawn) | > 100 µM | 
O=C1C(Cl)=C(Nc2cccc(C(F)(F)F)c2)C(=O)N1Cc1ccccc1Cl | 35.9 µM | 15.5 µM
O=C(NCCN1CCOCC1)Nc1ccc(-c2cc3c(Nc4ccc(Oc5cccc(C(F)(F)F)c5)c(Cl)c4)ncnc3s2)cc1 | 7.31 µM | 1.76 µM
c1ccc([C@@H]2N[C@@]3(CO[Si](c4ccccc4)(c4ccccc4)c4ccccc4)CC[C@H]4CN[C@@H]2[C@H]43)cc1 | 22.9 µM | 

Structure (SMILES) | TGI | GI50
N#CC1=C(C#N)/C(=C(\C#N)C(C#N)C#N)N=C1N | 34.9 µM | 
CC1=Nc2c([nH]c(=S)[nH]c2=O)NC(c2ccc(Cl)c(Cl)c2)C1 (stereo not drawn) | > 100 µM | 
COc1cc2c(cc1OC)C(Cl)C(c1ccc(Cl)cc1)=C2Cl (stereo not drawn) | 41.9 µM | 
COC(=O)C(/C(=N/N)C(=O)Nc1cc(Cl)c(Cl)cc1Cl)c1nc2ccc(Cl)cc2[nH]c1=O (stereo not drawn) | > 100 µM | 
COc1cc(/C=C2\CC3C4CC=C5C[C@@H](N6CCCC6)CC[C@]5(C)C4CC[C@]3(C)[C@H]2OC(C)=O)ccc1OCCN1CCCCC1 (stereo partly drawn) | 1.95 µM | 0.468 µM
CC(C)CNc1nc(N)[nH]c(=O)c1NC=O | > 100 µM | 
CCOC(=O)c1cc2cc(NC(=O)c3cc4cc([N+](=O)[O-])ccc4n3C)ccc2n1C | > 100 µM | 30.8 µM
COc1cc(-c2nn(C(=O)NS(=O)(=O)c3ccc(C)cc3)cc2-c2ccncc2)ccc1Cl | 95.1 µM | 17.3 µM
O=C(CCCNC(=O)OCc1ccccc1)OCc1ccc2c(c1)C(=O)c1ccccc1C2=O | > 100 µM | 
O=C(Nc1cccc2cccnc12)c1ccc(N2C(=O)[C@@H]3[C@H](C2=O)[C@@H]2C=C[C@H]3C2)cc1 | > 100 µM | > 66.3 µM
NC(=O)C(=CN1C(=O)CC(=O)NC1=S)C(N)=O | > 100 µM | 
CCCCN(CCCC)CC(C)(C)C(O)c1ccc(OC)c2ccccc12 (stereo not drawn) | 37.5 µM | 6.69 µM
CC(=O)O[C@H]1C(=O)[C@@]2(C)[C@H]([C@H](OC(=O)c3ccc([N+](=O)[O-])cc3)[C@]3(O)C[C@H](OC(=O)[C@H](O)[C@@H](NC(=O)c4ccccc4)c4ccccc4)C(C)=C1C3(C)C)[C@]1(OC(C)=O)CO[C@@H]1C[C@@H]2O | > 25 µM | 
COc1ccc(-c2c3c(n(C4OC(CO)C(O)C(O)C4O)c(=S)c2C#N)CC(C)(C)CC3=O)cc1 (stereo not drawn) | > 100 µM | 
COc1cc(C)cc2c1C(=O)C(Br)=CC2=O | 31.5 µM | 
OCCSCc1cc2c(O)c(c1)Cc1cc(CSCCO)cc(c1O)Cc1cc(CSCCO)cc(c1O)Cc1cc(CSCCO)cc(c1O)C2 | 23 µM | 
CC1CCC2C(C)C3C(CC4C5CC=C6CC(OC7OC(CO)C(O)C(OC8OC(CO)C(O)C(O)C8O)C7OC7OC(C)C(O)C(O)C7O)CCC6(C)C5CCC43C)N2C1 (stereo not drawn) | 29 µM and > 2.5 µg/mL | > 2.5 µg/mL
COc1ccc(-n2c3c(c4cc(O)ccc42)C(=O)c2ccccc2C3=O)cc1 | 59.7 µM | 
Cc1ccc(C)c(/C(=N\N=C(N)N)C2CC2)c1 | > 100 µM | 
Oc1ccc(Br)cc1/C=N/NC(=S)NC12CC3CC(CC(C3)C1)C2 | 7.93 µM | 2.38 µM
CC1(C)C=C(/C=N/Nc2ccc(Br)cc2)C(C#N)=C(O)C1(C#N)C#N | > 100 µM | 
Cn1c2ccccc2c(=O)c2c(O)cc3c(c21)C=CC1(CCCC1)O3 | > 100 µM | 
CCN(CC)CCN=Cc1c(O)c(O)c(C(C)C)c2cc(C)c(-c3c(C)cc4c(C(C)C)c(O)c(O)c(C=NCCN(CC)CC)c4c3O)c(O)c12 | 20.3 µM | 
C[C@H]1CCC/C=C/[C@@H]2C[C@H](O)C[C@H]2[C@H](O)[C@@H](S(=O)CCN)CC(=O)O1 (stereo partly drawn) | 3.09 µM | 0.0497 µM

Structure (SMILES) | TGI | GI50
Cc1c(C2Cc3ccccc3N2C(=O)/C=C\C(=O)O)c2ccccc2n1C (stereo not drawn) | 56.7 µM | 
CC(=O)n1nc(-c2nc3ccccc3nc2Cl)cc1Cl | 73.9 µM | 
Oc1ccc(/C=N/Nc2nc3ccccc3s2)c(O)c1 | 6.09 µM | 1.18 µM
CN(C)CCNC(=O)c1cccc2nc3c4ccccc4c4ccccc4c3nc12 | 3.08 µM | 
CCCCOP(=O)(OCCCC)/C(C#N)=C/c1ccco1 | > 100 µM | 
Cn1c(=O)c2c(nc(C[N+]3([O-])CCOCC3)n2C)n(C)c1=O | > 100 µM | 
CN(C)CCOC1(Cc2ccc(Cl)cc2Cl)CCC(C(C)(C)C)CC1 (stereo not drawn) | 3.14 µM and 3.23 µM | 
CCCC(=O)NC(c1ccc2c(c1)OCO2)c1ccc2cccnc2c1O (stereo not drawn) | > 100 µM | 0.6 µM
N#CCC(=O)N/N=C1/C(=O)NC(=O)C(=O)C1c1nc2ccccc2s1 (stereo not drawn) | > 100 µM | 
COc1cc(C2CC(c3ccc4c(c3)OCO4)=NN2C(C)=O)cc(OC)c1OC (stereo not drawn) | > 100 µM | 3.01 µM
CN(C)[C@@H]1C(=O)C(C(=O)NCNCCCC(=O)O)=C(O)[C@@]2(O)C(=O)C3=C(O)c4c(O)cccc4[C@@](C)(O)[C@H]3C[C@@H]12 | > 100 µM | 
O=C(N=Nc1c(O)[nH]c2c(Cl)cc(Cl)cc12)c1ccncc1 | > 100 µM | 
COc1cc(OC)c(OC)cc1/C=C1\C=Cc2ccccc21 | > 100 µM | 
CCOC(=O)c1nc2ccc(Cl)cc2c2c1CCO2 | > 100 µM | 
COc1ccc(OC)c(-c2cc(-c3ccccc3)nn2-c2ccc(S(N)(=O)=O)cc2)c1 | 22.5 µM | 10.5 µM
COC(=O)[C@H]1C=C[C@@H](C)n2c(=O)c3ccccc3c(=O)n21 | > 100 µM | 
CCOC(OCC)c1ccc(/C=C/c2cc(OC)c(OC)c(OC)c2)cc1 | > 100 µM | 
CCCCCC(=O)OCC(=O)[C@H]1[C@H](C)C[C@H]2[C@@H]3C[C@H](F)C4=C/C(=N/OC(=O)c5cccc6c(=O)c7ccccc7[nH]c56)C=C[C@]4(C)[C@H]3[C@@H](O)C[C@@]21C | > 100 µM | 
O=C1c2ccccc2C(=O)c2c(NCCNC(=O)C3CCCN3)ccc(NCCNC(=O)C3CCCN3)c21 (stereo not drawn) | 0.261 µM | 
COc1ccc(/C(Cl)=C(\C=O)c2ccc(OC)c(OC)c2)cc1OC | > 100 µM | 
COc1ccc2c(c1OC)-c1c(c3ccc([N+](=O)[O-])cc3c(=O)n1CCCN=[N+]=[N-])C2=O | > 100 µM | > 100 µM
CCCCSCc1nc2nc(Cl)c(Cl)nc2[nH]1 | 86.1 µM | 
COc1cccc(Cn2cc3c(c2)-c2oncc2CC3)c1 | > 26.1 µM | 0.432 µM
CC1(C)OC(=O)C(C)(C)OC1=O | > 100 µM | 

Structure (SMILES) | TGI | GI50
O=C1/C(=C/c2ccc([N+](=O)[O-])s2)Oc2ccccc21 | 7.58 µM | 2.58 µM
NC1=CC(C(=O)c2ccncc2)c2nc3ccccc3nc21 (stereo not drawn) | > 100 µM | 
NC1=NC2(O)c3ccccc3C(=O)C2(O)N1 (stereo not drawn) | > 100 µM | 
CCOC(=O)c1nnsc1NC(=O)Nc1ccc(Cl)cc1 | > 100 µM | 
COC1=CC(C2c3cc4c(cc3[C@@H](Nc3ccc([N+](=O)[O-])cc3)C3COC(=O)[C@H]23)OCO4)=CC(=O)C1=O (stereo partly drawn) | > 95.4 µM | 
O=C1/C(=C/c2ccc(Cl)cc2)NC(=S)N1CN1CCOCC1 | > 100 µM | 
Cc1ccc(C2SCc3nc4ccc(C(=O)c5ccccc5)cc4n32)cc1 (stereo not drawn) | 38.5 µM | 16.4 µM
Cc1cnc2[nH]c(-c3ccc(F)cc3)cc(=O)c2c1 | > 87.2 µM | 
CCc1ccccc1-n1c2nc(=O)n(C)c(=O)c-2nc2ccccc21 | 34.2 µM | 
CC(C)c1cc(CNc2nc(Nc3cc(C4CC4)[nH]n3)cc(N3CCN(C)CC3)n2)on1 | 5.61 µM and 3.28 µM | 0.621 µM and 0.329 µM
COC(C/C(=C/CO[Si](C(C)C)(C(C)C)C(C)C)C(=O)Nc1ccccc1I)OC | > 100 µM | 
NC(=O)c1csc(CCCCCCc2nc(C(N)=O)cs2)n1 | > 100 µM | 
C#CCCOC1(OC)N=NC(C)(C)O1 (stereo not drawn) | > 100 µM | 
O=c1cc(NCC2CCCCC2)[nH]c(=O)[nH]1 | > 100 µM | 
CC1=NN2C(=O)CC(=O)N=C2S1 | > 100 µM | 
COC(=O)/C(C#N)=C1\NC(=O)CC(c2ccccc2)C1C#N (stereo not drawn) | > 100 µM | 
NC(=O)C12C3C4C1C1C2C3C41C(N)=O (stereo not drawn) | > 100 µM | 
CCC(CC)C(=O)OC[n+]1cccc(-c2c(COC(=O)NC(C)C)c(COC(=O)NC(C)C)c3n2CCC3)c1 | > 100 µM | 
COc1cc(/C=C2/SC(c3ccccc3)N(c3ccc(Cl)cc3)C2=O)cc(OC)c1OC (stereo not drawn) | > 100 µM | 
CN(C)CCCSc1c2ccccc2nc2cc(NCC(=O)Nc3ccccc3-c3ccccc3NC(=O)CNc3ccc4c(SCCCN(C)C)c5ccccc5nc4c3)ccc12 | > 100 µM | 
O=c1oc2cc(O)ccc2c(O)c1C(c1ccccn1)c1c(O)c2ccc(O)cc2oc1=O | > 100 µM | 
